The record followed here is PubChem BioAssay AID1347073 (National Center for Advancing Translational Sciences (NCATS), 2019).

Out of some 45,000 compounds screened, about 200 (0.44%) were called active. Roughly 7% stayed inconclusive and do not appear here. Calls come from the whole dose curve; as a rule, active = well fitted activation curve with a large enough effect; inconclusive = small, poorly fitted or top-dose-only effect; inactive = no such curve, though single readings can be large or run the other way. The list shows a part of the results.

The assay can be described thus: qHTS of TDP-43 Inhibitors: NCGC Sytravon Library Screen. Note: 0% is about no effect; nearly all actives have a fitted effect of over 55% in size. The note with it: yeast TDP-43 toxicity rescue, BacTiter-Glo growth, 24 h; series mostly up to 46.1 µM; growth rescue (activation): at the top concentration. The essentials:
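TDP-43-expressing yeast, pregrown in raffinose, seeded at OD600 0.02 in galactose medium with compound for 24 hr at 30 deg C. Growth read by BacTiter-Glo luminescence, so rescue of toxicity appears as activation.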
With `NS(=O)(=O)c1ccc(NC(=O)CN2CCCC2)cc1`, the “growth rescue (activation)” value was inactive: 13.5%.
With `CCOc1ccc(NC(=O)N(CCN2CCOCC2)Cc2ccc3c(c2)CCCN3CC)cc1` the figure was inactive: 21.6%; with `CC1CN(C(=O)c2cccc(COc3ccccc3Cl)c2)CC(C)O1` (centres undefined), inactive: 9.37%; with `CC(C)C(NS(=O)(=O)c1ccc2c(c1)OCCCO2)C(=O)O` (centres undefined), inactive: -4.55%.
With `COc1ccccc1N(C)S(=O)(=O)c1ccc(C(=O)OCC(=O)N(C)c2ccccc2)cc1` the figure was inactive: 10.9%.
Consider `CC(c1ccco1)N(C(=O)c1ccccc1NS(=O)(=O)c1cccc([N+](=O)[O-])c1)c1ccccn1` (centres undefined), for which the “growth rescue (activation)” value is inactive: 0.436%.
With `N#Cc1ccc(-c2ccc(OCC(O)CN3CCCCC3)cc2)cc1` (centres undefined) the figure was inactive: -10.6%; with `Cc1ccc(-c2cnc(C(O)c3cc(Cl)cc(Cl)c3)[nH]2)cc1` (centres undefined), inactive: 11.1%; with `COc1ccc(S(=O)(=O)NCCSCc2ccc(Cl)cc2)cc1NC(C)=O`, inactive: 13.6%.
For `Cc1ccc(CN2CCN(/N=C/c3cccs3)CC2)cc1` the value was inactive: 6.8%.
For `O=c1[nH]c(=O)c2ccccc2o1` the value was inactive: -6.52%.
With `CC(C)(CNCc1ccccc1)NS(=O)(=O)c1ccc(Cl)cc1`, the “growth rescue (activation)” value was inactive: 19.6%.
Turning to `NC(=O)c1ccc[n+](CC(=O)c2ccccc2)c1`, the “growth rescue (activation)” value was inactive: -6.67%.
As for `Cc1ccc(S(=O)(=O)N2CCCC(C(=O)NCc3ccccc3F)C2)cc1` (centres undefined), the “growth rescue (activation)” value is inactive: -2.12%.
For `COc1ccc(S(=O)(=O)N2CCN(c3ccccc3)CC2)cc1C(=O)N1CCCC1` the value was inactive: 14.7%.
As to `CNCc1cc(Br)c(OCC(=O)Nc2ccccc2OC)c(OC)c1`, the “growth rescue (activation)” value was inactive: 10.1%.
With `COc1cc(CNC(=O)c2cc(-c3ccc(OC)cc3C)n[nH]2)cc(OC)c1` the figure was inactive: 8.45%.
With `O=C1NC(=O)/C(=C\c2cn(CC(=O)N3CCOCC3)c3ccccc23)S1` the figure was inactive: 7.37%; with `CCn1c(SCC(=O)N2CCOCC2)nnc1-c1ccco1`, inactive: 4.81%; with `CN(C)S(=O)(=O)N1CCC(n2nccc2NC(=O)CCc2ccccc2)CC1`, inactive: 4.67%.
As to `CC(C)CNC(=O)CSc1nnc2ccccn12`, the “growth rescue (activation)” value was inactive: 2.57%.
With `O=C(CN(C(=O)CCC(=O)Nc1nccs1)c1ccc(F)cc1)NCc1ccc2c(c1)OCO2` the figure was inactive: 1.86%; with `Cc1nc(C)c(C(=O)N/N=C/c2ccco2)s1`, inactive: -2.11%; with `CCN(CC)c1ccc(S(=O)(=O)N2CCOCC2)cc1NS(C)(=O)=O`, inactive: 10.6%.
For `CN1CCSc2ccc(C(=O)Nc3ccc(Cl)cc3)cc21` the value was inactive: 0.767%; for `O=c1[nH]c2ccccc2c(=O)n1Cc1ccco1`, inactive: 7.43%.
In the case of `CC(CN1C(C)CCCC1C)OC(=O)c1cccc(Br)c1` (centres undefined), the “growth rescue (activation)” value is inactive: 4.98%.
`O=S(=O)(c1cccs1)N1CN(Cc2cccs2)c2nc3ccccc3nc21`: the “growth rescue (activation)” value is inactive: -0.805%.
For `N#CC1=C(N)Oc2n[nH]c(-c3ccc(F)cc3)c2C1c1cccnc1` (centres undefined) the value was inactive: 19.5%; for `CN(Cc1cn(-c2ccccc2)nc1-c1ccc(F)cc1)C(=O)CCC(=O)O`, inactive: 8.55%; for `Cc1cc(=O)oc2cc(OCC(=O)OCC(=O)NCCc3ccccc3)ccc12`, inactive: 7.72%.
With `CCOc1ccccc1NC(=O)CN1CCC(C(=O)c2ccc(F)cc2)CC1` the figure was inactive: 12.7%; with `CCOc1ccccc1CN1CCN(C2CCSCC2)CC1CCO` (centres undefined), inactive: 7.36%.
With `O=C(Nc1ccccc1C(=O)O)c1cc(S(=O)(=O)N2CCCCCC2)ccc1Cl` the figure was inactive: 1.94%.
Regarding `O=C(Cc1nc2ccccc2[nH]1)c1ccc(Br)cc1`, the “growth rescue (activation)” value is inactive: 16.4%.
Take `C=CCn1cc([N+](=O)[O-])nc1C`: the “growth rescue (activation)” value is inactive: -24.7%.
With `COc1ccc(C2Nc3ccccc3C(=O)N2NC(C)=O)c(OC)c1` (centres undefined) the figure was inactive: -4.18%; with `CC1(C)NC(=O)N(CC(=O)OCC(=O)c2ccc(Br)s2)C1=O`, inactive: 16.7%.
With `Oc1ccc(Cn2ccnc2)c2cccnc12` the figure was inactive: -9.8%; with `COc1cccc(C(=O)N(C)C(C)c2nc3ccccc3s2)c1` (centres undefined), inactive: -9.45%; with `Cc1cc(C(=O)Nc2c(C)cccc2C)n(-c2ccccc2)n1`, inactive: 2.11%.
Consider `COc1ccc(NC(=O)c2cc(C3CCCCN3S(=O)(=O)Cc3ccccc3)on2)c(C)c1` (centres undefined), for which the “growth rescue (activation)” value was inactive: 22.3%.
For `CCN1C(=O)C(C(=O)NC(C)c2ccccc2)C2CC1(C)Oc1ccccc12` (centres undefined), the “growth rescue (activation)” value was inactive: 11.4%.
With `N#Cc1c(-c2ccccc2)nc(-c2ccccc2)nc1N1CCOCC1` the figure was inactive: 3.63%; with `CCCCNC(=O)CSc1nnc(NC(C)=O)s1`, inactive: 7.31%.
With `CCN(CC1CCCO1)C(=O)CCc1nnc(Cc2ccc3c(c2)OCO3)o1` (centres undefined) the figure was inactive: -2.33%; with `CC(=O)c1cccc(NC(=S)NC2CC2)c1`, inactive: 10.1%; with `CCC(=O)c1ccc(OCC(=O)OCC(=O)N(CCC#N)c2ccc3c(c2)OCCO3)cc1`, inactive: 1.02%.
For `O=C(Nc1ccc(Br)cc1)c1cccc(N2C(=O)C3CCCCC3C2=O)c1` (centres undefined) the value was inactive: 4.88%; for `CCCNC(=O)c1cc(C2CCCN(C(=O)c3ccc4ccccc4c3)C2)on1` (centres undefined), inactive: 5.39%; for `CS(=O)(=O)N(CC(=O)NCC1CCCO1)c1cc(Cl)c(Cl)cc1Cl` (centres undefined), inactive: 3.27%.
As for `COc1ccc(Br)cc1/C=C/c1ccc2cccc(O)c2n1`, the “growth rescue (activation)” value is inactive: 23.9%.
On to `CCOC(=O)c1c(C)[nH]c(C)c1C(=O)COC(=O)c1ccc(OC)c(OC)c1`, for which the “growth rescue (activation)” value is inactive: 2.14%.
For `CN(C)c1ccc(C(C(=O)NCC2CCCO2)N(C(=O)c2snc(C(N)=O)c2N)c2ccc3c(c2)OCO3)cc1` (centres undefined) the value was inactive: 12.7%.
With `O=C(O)c1cccc(NS(=O)(=O)c2cc(S(=O)(=O)c3ccc(Cl)cc3)ccc2Cl)c1` the figure was inactive: -10.8%; with `CCc1cccc2c(C(=O)COC(=O)c3cccc(S(=O)(=O)N(C)C4CCCCC4)c3)c[nH]c12`, inactive: 5.47%.
Regarding `N=c1ccn(Cc2c(Cl)cccc2Cl)cc1`, the “growth rescue (activation)” value was inactive: 5.51%.
With `COC(=O)c1ccc(COC(=O)c2cccn2C)o1` the figure was inactive: -1.17%; with `CCOC(=O)Cc1nnc(NC(=O)CCc2ccccc2)s1`, inactive: 14.1%.
For `COc1ccc(OC)c(S(=O)(=O)N2CCCC(C(=O)NCc3ccncc3)C2)c1` (centres undefined) the value was inactive: 5.76%; for `C/C(=N\NC(=O)Cc1cccn1C)c1ccco1`, inactive: 2.81%.
With `CCOC(=O)c1sc(NC(=O)CNCc2ccccn2)c(C(=O)OCC)c1C` the figure was inactive: -10.1%; with `CCOC(=O)c1nnn(-c2nonc2N)c1CNc1ccc(C)c(Br)c1`, inactive: 38.2%; with `COc1ccccc1N1CCN(C(=O)c2cc3c(=O)n4cccc(C)c4nc3s2)CC1`, inactive: -5.59%.
Consider `COc1ccc(O)c(-c2cc(-c3ccc(F)cc3)n[nH]2)c1`, for which the “growth rescue (activation)” value is inactive: 20.2%.
For `O=C(NN1C(=O)c2ccccc2NC1c1ccc([N+](=O)[O-])o1)c1ccccc1` (centres undefined) the value was inactive: 29.2%; for `CN1/C(=C\C(=O)Nc2ccc(F)cc2)C(C)(C)c2ccccc21`, inactive: -2.19%; for `COC(=O)c1ccccc1S(=O)(=O)N1CCC(C(=O)Nc2ccc(N3CCOCC3)cc2)CC1`, inactive: 0.36%.
For `CNc1nc(-c2ccc3c(c2)CCN3C(=O)c2ccccc2F)c(C)s1`, the “growth rescue (activation)” value was inactive: 9.11%.
